Reference: PubChem BioAssay AID662 (National Center for Advancing Translational Sciences (NCATS), 2007)
Among all 71,000 compounds or so, about 1,800 (2.5%) were called active. This list was built around the results that the source calls inconclusive (neither active nor inactive); the mix of calls is not that of the screen. The call rests on the fitted dose curve; in most records, active means well fitted activation curve with a large enough effect in the signal ratio, with a control signal flat (not every such curve was filed as active); inconclusive means small, poorly fitted or top-dose-only effect, or effect the other way, or a change in a side signal; inactive means flat fitted curve, though single readings scatter; the % refers to the signal ratio. Potencies beside an inconclusive call are fits to weak or partial responses and may not hold up.

Assay: Cell signaling CRE-BLA (Fsk stim); on activity change, negative = inhibition: % of control where 0% means no effect
Conditions: CHO CRE-bla reporter (cAMP response element driving beta-lactamase), forskolin EC10, beta-lactamase ratio; activity change, negative = inhibition: at 38.2 µM (top of the series) unless noted
In short: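 Titrated compounds plus EC10 NKH 477 on CHO CRE-bla cells, 3 h, 37 °C. CCF4, 2 h RT. Ratio 460/530 nm → AC50.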
Potency means the concentration at half of the fitted maximal effect; tags describe the fitted curve by direction and shape.

SMILES | activity change, negative = inhibition | Potency
O=C(c1ccco1)N1c2ccccc2Sc2ccccc21 | inactive: -8.87% | –
N#Cc1nc(-c2ccc(Cl)cc2)oc1NCc1cccc2c1OCO2 | inconclusive: 21.6% | –
COc1ccc(S(=O)(=O)N2CCCC(C(=O)O)C2)cc1 (configuration not stated) | inconclusive: 11.2% [at 7.6 µM] | –
Cc1ccc(N2CCN(S(=O)(=O)c3ccc(F)cc3)CC2)c(C)c1 | – | inconclusive: 2.51 µM [rising, full curve]
O/N=C1\CC/C(=N\O)c2nn(-c3ccccc3Cl)nc21 | inconclusive: -5.08% | –
Cc1ccc(-n2c3c(cc(C(=O)NC4CCSC4=O)c2=O)C(=O)CCC3)cc1 (configuration not stated) | inactive: -6.59% | –
COc1ccc(NC(=O)Nc2ccc(OCC(=O)N3CCOCC3)cc2)cc1OC | – | inconclusive: 0.398 µM [falling, single point]
COc1ccc(Oc2ncc3nc(-c4cn(C)c5ccccc45)c(=O)n(C4CC4)c3n2)cc1 | – | inconclusive: 0.794 µM [rising, full curve]
C[C@H](N)CCCC(C)(C)O | inactive: 4.81% [at 17.1 µM] | –
COC(=O)c1sc(N)c(C(=O)OC)c1CSc1nc2sc3c(c2c(=O)n1C)CCC3 | – | inconclusive: 2.51 µM [rising, partial curve]
CSC1=NCCN1C(=O)c1ccc(S(=O)(=O)N2CCCCC2)cc1 | inconclusive: 22.3% | –
CCn1c(SCC(=O)Nc2ccc3c(c2)OCCO3)nc2c(c1=O)SC(C)C2 (configuration not stated) | – | inconclusive: 1 µM [rising, full curve, poor fit]
CC(C)c1cccc2nc3c(c(C(C)(C)C)c12)Cn1c-3cccc1=O | – | active: 10 µM
O=C(Nc1cccc(-c2nnc(-c3ccccc3)o2)c1)c1ccc(Br)o1 | inconclusive: -20.9% | –
CC(=O)C1=C(C)NC(C)=C(C(C)=O)C1c1ccc(-c2ccccc2Cl)o1 | – | inconclusive: 25.1 µM [rising, single point]
COC(=O)c1ccccc1NC(=O)CSc1nc(-c2ccco2)cc(C(F)(F)F)n1 | – | inconclusive: 2.51 µM [rising, partial curve]
CCC(=O)OCC(=O)[C@@]1(OC(=O)CC)[C@H](C)C[C@@H]2[C@H]3CCC4=CC(=O)C=C[C@]4(C)[C@]3(Cl)[C@@H](O)C[C@@]21C | inactive: -6.94% [at 17.1 µM] | –
CCN(CC)c1ccc2cc(-c3nc4ccccc4[nH]3)c(=O)oc2c1 | – | inconclusive: 0.794 µM [falling, partial curve]
COCCOC(=O)C1=C(C)NC2=C(C(=O)CC(c3cccs3)C2)C1c1ccsc1 (configuration not stated) | inconclusive: 14.8% | –
CCC(=O)Nc1nc2cc(OC)ccc2s1 | inactive: 3.01% | –
O=C(O)c1ccc2c3c1cccc3c(=O)n1c3ccccc3nc21 | – | active: 5.01 µM

SMILES | activity change, negative = inhibition | Potency
CC(C)(C)n1ncc2c(=O)n(CC(=O)NC3CCCCC3)cnc21 | inconclusive: 25.8% | –
CCOc1ccc(C(=O)Nc2ccc3c(c2)OCCO3)cc1OC | inactive: 21.1% | –
COc1ccc(N(CC(=O)N2CCc3ccccc32)S(=O)(=O)c2c(C)n[nH]c2C)cc1 | – | inconclusive: 0.126 µM [falling, full curve, poor fit]
Cc1cccc(CS(=O)(=O)Cc2ccc(C(=O)NCc3ccco3)o2)c1 | – | inconclusive: 3.98 µM [rising, single point]
CCNC(=O)NC(=O)COC(=O)c1ccccc1SCC(=O)NC(=O)NCC | – | inconclusive: 12.6 µM [rising, single point]
Cn1c(C(=O)Nc2ccc3c(c2)OCCO3)cc2c(=O)n(C)c3ccccc3c21 | – | active: 0.398 µM
CC(=O)Cc1nsc(NC(=O)c2ccc(-c3ccc(Cl)c(C(F)(F)F)c3)o2)n1 | – | inconclusive: 25.1 µM [falling, single point]
COc1ccc(-c2nnc(SCC(=O)N3CCCc4ccccc43)o2)cc1OC | inconclusive: 3.13% | –
Cc1c(-c2nc(N)nc(Nc3ccccc3F)n2)oc2ccccc12 | – | active: 3.98 µM
CC(C)NC(=O)CSc1nnc(-c2ccc(S(=O)(=O)N3CCCC3)cc2)n1CC1CCCO1 (configuration not stated) | inactive: -7.24% | –
COc1ccccc1NC(=O)CSc1nnc(-c2ccco2)n1Cc1ccco1 | inactive: -2.72% | –
O=C(c1cccc(F)c1)N1CCC2(CCCN(C(c3ccccc3)c3ccccc3)C2)CC1 | – | inconclusive: 12.6 µM [rising, single point]
COc1ccc(-n2c(=O)c(C)nc3cnc(N(C)C)nc32)cc1 | – | active: 12.6 µM
CCn1c(=O)c(C(=O)NCc2cccnc2)c(O)c2ccccc21 | – | active: 2.51 µM
O=C(NCc1ccco1)c1ccccc1Br | inconclusive: -9.88% | –
CCOC(=O)c1ccc2c(c1)nc(C1CCN(S(=O)(=O)c3cccs3)CC1)n2CC | inconclusive: -17.1% | –
O=S(=O)(NCC1CCCO1)c1ccc(Cl)c(C(F)(F)F)c1 (configuration not stated) | inactive: -0.00362% | –
COc1cccc(OCc2nnc(SCC(=O)OCc3ccccc3)o2)c1 | inactive: -4.77% | –
COc1ccc(CNC(=O)c2cc3c(=O)n4ccccc4nc3n(Cc3cccnc3)c2=N)cc1 | inconclusive: -4.12% | –
Cn1cc(C(=O)NCCN2CCN(c3cccc(Cl)c3)CC2)c2c3ccccc3n(C)c2c1=O | inconclusive: 9.82% | –
CC(=O)Nc1sc(NC(=O)c2ccccc2)nc1-c1cccs1 | inactive: 27.7% | –

SMILES | activity change, negative = inhibition | Potency
O=c1c2cn[nH]c2[nH]c(=S)n1-c1ccccc1F | inactive: 1.44% | –
CC1(C)C(c2cccs2)=[N+]([O-])C2(CCCCC/C2=N\O)N1O (configuration not stated) | inconclusive: 3.25% | –
O=c1c2ccccc2nc(SCc2cn3ccsc3n2)n1-c1ccccc1 | – | active: 1.26 µM
O=C(CCn1nnc(-c2cccs2)n1)NC1CCCCC1 | inconclusive: 27.2% | –
O=C(C1CCCCC1)N1CCC(c2nc3ccccc3[nH]2)CC1 | inactive: -0.793% | –
O=C(Cn1c(=O)oc2cc(S(=O)(=O)N3CCCC3)ccc21)Nc1ccc(C(F)(F)F)cc1 | inactive: -1.53% | –
CCCn1c(NC(=O)C2CCN(S(=O)(=O)c3cccs3)CC2)nc2ccccc21 | inconclusive: -22.6% | –
O[C@H](C[C@@H]1CCCCN1)c1ccc2c(c1)oc1ccccc12 | inactive: 22.4% [at 7.6 µM] | –
CCOC(=O)N1CCC(c2nc3ccccc3[nH]2)CC1 | inconclusive: -20.3% | –
CCOC(=O)c1cccc(NC(=O)Cn2cnc3c2c(=O)n(C)c(=O)n3C)c1 | inconclusive: 25.8% [at 7.6 µM] | –
Cc1c(C(=O)Nc2ccc(N3CCOCC3)cc2)oc2ccccc12 | inconclusive: 14.9% | –
O=C(O)[C@@H]1[C@@H](C(=O)Nc2ncccn2)[C@@H]2C=C[C@@H]1O2 | inactive: 8.02% [at 7.6 µM] | –
N#CC1=C(N)OC(c2ccccc2)=C(C#N)C1c1ccc2c(c1)OCO2 (configuration not stated) | inconclusive: 21.6% | –
NC(=O)CSc1nc(-c2ccccc2Cl)ns1 | inconclusive: -21.7% | –
c1ccc2nc(N3CCOCC3)c(N3CCOCC3)nc2c1 | inactive: 6.24% | –
COC(=O)CS | inactive: -11.1% | –
CCOC(=O)C1=C(C)NC(C)=C(C(=O)OCC)C1C(=O)OCC(=O)N1CCC(C)CC1 | inactive: 8.05% | –
Nc1ccc2cc3ccccc3cc2c1 | inconclusive: -9.68% [fluorescent] | –
CC1=C(C(=O)Nc2cccnc2)C(c2ccc(C(C)C)cc2)n2ncnc2N1 (configuration not stated) | inactive: -4.22% | –
COc1ccccc1Oc1c(C)oc2c(CN3CCN(CCO)CC3)c(O)ccc2c1=O | inactive: -0.635% | –
COc1ccc(C(=O)N2CCC3(CCN(Cc4ccc(C#N)cc4)CC3)CC2)cc1 | inconclusive: 4.01% | –

SMILES | activity change, negative = inhibition | Potency
CC1CCCCN1CCNC(=O)c1cc2c(-c3ccccc3F)nn(C)c2s1 (configuration not stated) | inactive: 23.3% | –
O=C(CSc1nnc(-c2ccc(NS(=O)(=O)c3ccccc3)cc2)o1)NCC1CCCO1 (configuration not stated) | inconclusive: -3.68% | –
CC(=O)Nc1ccc(O)cc1 | inactive | –
CC(=O)Nc1cccc(NC(=O)c2c(-c3c(Cl)cccc3Cl)noc2C)c1 | inconclusive: 15.9% [at 7.6 µM] | –
Cc1ccccc1Nc1nc(N)nc(CSc2nnnn2-c2ccccc2)n1 | – | inconclusive: 10 µM [rising, partial curve]
O=c1c2ccccc2oc2nc3n(c(=O)c12)CCCS3 | inconclusive: 0.654% [at 7.6 µM] | –
COC(=O)[C@@]1(Cc2ccc(OC)cc2)[C@H]2c3cc(C(=O)N(C)C)n(Cc4ccc(C)c(F)c4F)c3C[C@H]2CN1C(=O)c1ccccc1 | – | active: 20 µM
O=C(N[C@@H](c1ccccc1)[C@@H]1C[C@H]1C(=O)NCc1ccccc1)OCc1ccccc1 | inactive: -8.79% | –
Cc1ccc(CCNC(=O)Cn2cccc2)cc1 | inactive: -2.18% | –
O=C(Nc1cccc(F)c1)N1CC[C@@]2(CCCN(C(=O)c3csnn3)C2)C1 | inactive: 1.57% | –
CN1CCN(Cc2c(O)ccc3c(=O)c(Oc4ccccc4Cl)c(C(F)(F)F)oc23)CC1 | inactive: -7.61% | –
CCOC(=O)CNC(=O)C(Cc1ccccc1)NS(=O)(=O)c1cccs1 (configuration not stated) | – | inconclusive: 20 µM [rising, partial curve]
COc1ccc(C2C(C(=O)N3CCN(c4ccc(OC)cc4)CC3)c3ccccc3C(=O)N2C)cc1 (configuration not stated) | inconclusive: 31.2% | –
CCOc1ccc(NC(=O)c2ccccc2OC)cc1 | inactive: 3.2% | –
COc1ccc(N2CCn3c2nc2c3c(=O)n(CCc3ccccc3)c(=O)n2C)c(OC)c1 | inactive: -5.64% | –
Cc1ccccc1NC(=O)N1CCCC(c2nc(-c3ccc(C(C)C)cc3)no2)C1 (configuration not stated) | inconclusive: -20% | –
COc1cc2c(cc1NC(=O)CN(C)Cc1nc3ccccc3c(=O)[nH]1)oc1ccccc12 | – | inconclusive: 1 µM [rising, partial curve]
O=C(Cc1cn2ccsc2n1)OCc1nc2ccccc2s1 | – | inconclusive: 2 µM [falling, partial curve]
CCOC(=O)c1c(NC(=O)c2ccc(Br)o2)sc2c1CCCC2 | – | inconclusive: 3.16 µM [rising, single point]
